# Some of the results follow. At the low end of the ranking the order means little.
# Molecular target: GST-SBP-SLBP (stem-loop binding protein) (UniProt Q14493)
# Assay: targeted RNA Bind-n-Seq;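 further: DESeq read counts versus GST-SBP nonspecific binding control pulldown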
# Details: RBNS binding buffer: 25 mM Tris pH 7.5, 150 mM KCl, 3 mM MgCl2, 0.1% Tween, 0.5 mg/mL BSA, 1 mM DTT; 27 nM protein, 750 pM RNA pool; temperature not stated; high values mean tight binding
row,Sequence,binding signal (log2 fold change)
1,GGUCACGUCUCAAUCAACUCUUCCCCCAGGGAAAGCCCUGGUUUUUUCAACAGCUCGCAGUCAAG,-0.2
2,GGUCACGUCUCAAUCAACUCAUUUCCCAGGGAAAGCCCUGGCUUUCUCAACAGCUCGCAGUCAAG,0.0523
3,GGUCACGUCUCAAUCAACUCUUCUUCAGGAGUUUUCUCCUGUAAUCUCAACAGCUCGCAGUCAAG,0.12
4,GGUCACGUCUCAAUCAACUCUUCGUCCAGGGAAAGCCCUGGUUUUUUCAACAGCUCGCAGUCAAG,-0.279
5,GGUCACGUCUCAAUCAACUCAAUUCCAGGAGUUUGCUCCUGUAUUUUCAACAGCUCGCAGUCAAG,-0.181
6,GGUCACGUCUCAAUCAACUCCUCAGAGGGGGGGAAAACCCCUUUACCCUCCAUGUCAACAGCUCGCAGUCAAG,-0.276
7,GGUCACGUCUCAAUCAACUCAAGUCCAGGAGUUUACUCCUGCAAUCUCAACAGCUCGCAGUCAAG,-0.0987
8,GGUCACGUCUCAAUCAACUCUCAAGAGGGGGGGAAAACCCCUUUGCCCUCCAUAUCAACAGCUCGCAGUCAAG,-0.17
9,GGUCACGUCUCAAUCAACUCUUCUUCCAGGGAAAACCCUGGUAAUGUCAACAGCUCGCAGUCAAG,0.12
10,GGUCACGUCUCAAUCAACUCAUUUUCCAGGGAAAUCCCUGGCUUACUCAACAGCUCGCAGUCAAG,-0.0356
11,GGUCACGUCUCAAUCAACUCAUUCCCAGGAGUUUCCUCCUGUAUACUCAACAGCUCGCAGUCAAG,0.0107
12,GGUCACGUCUCAAUCAACUCUAUCGAGGGGGGGAAAACCCCUUUACCCUCAUCCUCAACAGCUCGCAGUCAAG,-0.419
13,GGUCACGUCUCAAUCAACUCUAUCCCCAGGGAAAGCCCUGGCAUACUCAACAGCUCGCAGUCAAG,-0.272
14,GGUCACGUCUCAAUCAACUCAUCUUCAGGAGUUUACUCCUGUUUUCUCAACAGCUCGCAGUCAAG,0.0272
15,GGUCACGUCUCAAUCAACUCUACUCCCAGGGAAAUCCCUGGUUAACUCAACAGCUCGCAGUCAAG,0.0703
16,GGUCACGUCUCAAUCAACUCAAUCCCCAGGGAAAGCCCUGGCAAAUUCAACAGCUCGCAGUCAAG,-0.0658
17,GGUCACGUCUCAAUCAACUCUUCCCCCAGGGAAAUCCCUGGCUUUUUCAACAGCUCGCAGUCAAG,0.279
18,GGUCACGUCUCAAUCAACUCAUCUUCCAGGGAAAGCCCUGGCUAAUUCAACAGCUCGCAGUCAAG,0.217
19,GGUCACGUCUCAAUCAACUCAUCCCCAGGAGUUUCCUCCUGUAAACUCAACAGCUCGCAGUCAAG,0.031
20,GGUCACGUCUCAAUCAACUCUAUAGAGGGGGGGAAAACCCCUUUGCCCUCAUUUUCAACAGCUCGCAGUCAAG,-0.0364
21,GGUCACGUCUCAAUCAACUCAUUUUCAGGAGUUUCCUCCUGCAUUUUCAACAGCUCGCAGUCAAG,-0.0704
22,GGUCACGUCUCAAUCAACUCUUUUUCCAGGGAAAACCCUGGUUAUUUCAACAGCUCGCAGUCAAG,-0.054
23,GGUCACGUCUCAAUCAACUCUUCUCCCAGGGAAAGCCCUGGCAAUGUCAACAGCUCGCAGUCAAG,0.156
24,GGUCACGUCUCAAUCAACUCUACAGAGGGGGGGAAAACCCCUUUACCCUCCCAAUCAACAGCUCGCAGUCAAG,-0.177
25,GGUCACGUCUCAAUCAACUCUUAAGAGGGGGGGAAAACCCCUUUACCCUCGUCAUCAACAGCUCGCAGUCAAG,0.24

row,Sequence,binding signal (log2 fold change)
1,GGUCACGUCUCAAUCAACUCAUUUUCAGGAGUUUUCUCCUGCAUAUUCAACAGCUCGCAGUCAAG,0.0407
2,GGUCACGUCUCAAUCAACUCAAUUCCAGGAGUUUUCUCCUGUUAUCUCAACAGCUCGCAGUCAAG,-0.161
3,GGUCACGUCUCAAUCAACUCCUACGAGGGGGGGAAAACCCCUUUACCCUCAACCUCAACAGCUCGCAGUCAAG,0.619
4,GGUCACGUCUCAAUCAACUCAUACGAGGGGGGGAAAACCCCUUUGCCCUCAAAAUCAACAGCUCGCAGUCAAG,-0.136
5,GGUCACGUCUCAAUCAACUCUUCGCCCAGGGAAAUCCCUGGUUUUUUCAACAGCUCGCAGUCAAG,-0.209
6,GGUCACGUCUCAAUCAACUCUUUCUCCAGGGAAACCCCUGGCUUUCUCAACAGCUCGCAGUCAAG,0.00602
7,GGUCACGUCUCAAUCAACUCUACUCCAGGAGUUUUCUCCUGCUAUCUCAACAGCUCGCAGUCAAG,0.13
8,GGUCACGUCUCAAUCAACUCAUCGUCAGGAGUUUUCUCCUGUAUUUUCAACAGCUCGCAGUCAAG,-0.0133
9,GGUCACGUCUCAAUCAACUCAUUCUCCAGGGAAAUCCCUGGCAUACUCAACAGCUCGCAGUCAAG,0.258
10,GGUCACGUCUCAAUCAACUCAAUUUCAGGAGUUUUCUCCUGCUUUUUCAACAGCUCGCAGUCAAG,-0.0958
11,GGUCACGUCUCAAUCAACUCUAUCUCCAGGGAAAUCCCUGGUAAUCUCAACAGCUCGCAGUCAAG,-0.0443
12,GGUCACGUCUCAAUCAACUCAUCCUCCAGGGAAAUCCCUGGCUUUUUCAACAGCUCGCAGUCAAG,0.141
13,GGUCACGUCUCAAUCAACUCAUCCCCCAGGGAAACCCCUGGCUAUUUCAACAGCUCGCAGUCAAG,-0.316
14,GGUCACGUCUCAAUCAACUCUACUCCAGGAGUUUACUCCUGUUAUUUCAACAGCUCGCAGUCAAG,0.0217
15,GGUCACGUCUCAAUCAACUCUUCGUCCAGGGAAAUCCCUGGUAAUCUCAACAGCUCGCAGUCAAG,-0.144
16,GGUCACGUCUCAAUCAACUCUAUCCCAGGAGUUUUCUCCUGCAAUUUCAACAGCUCGCAGUCAAG,-0.076
17,GGUCACGUCUCAAUCAACUCUUUCUCCAGGGAAAUCCCUGGUAAUGUCAACAGCUCGCAGUCAAG,-0.00776
18,GGUCACGUCUCAAUCAACUCAUCGCCAGGAGUUUUCUCCUGUUAUUUCAACAGCUCGCAGUCAAG,0.159
19,GGUCACGUCUCAAUCAACUCAACUCCAGGAGUUUCCUCCUGUUAAUUCAACAGCUCGCAGUCAAG,0.0634
20,GGUCACGUCUCAAUCAACUCAACUUCCAGGGAAAUCCCUGGUAUUUUCAACAGCUCGCAGUCAAG,-0.186
21,GGUCACGUCUCAAUCAACUCUUCUCCAGGAGUUUUCUCCUGCAAUGUCAACAGCUCGCAGUCAAG,-0.082
22,GGUCACGUCUCAAUCAACUCUUCUUCCAGGGAAAGCCCUGGCAAACUCAACAGCUCGCAGUCAAG,-0.0185
23,GGUCACGUCUCAAUCAACUCUUCCUCCAGGGAAAUCCCUGGUAAUCUCAACAGCUCGCAGUCAAG,0.107
24,GGUCACGUCUCAAUCAACUCUACUCCAGGAGUUUUCUCCUGCUAACUCAACAGCUCGCAGUCAAG,0.0682
25,GGUCACGUCUCAAUCAACUCUUUUCCCAGGGAAAACCCUGGUAUUCUCAACAGCUCGCAGUCAAG,0.115

row,Sequence,binding signal (log2 fold change)
1,GGUCACGUCUCAAUCAACUCUACUCCAGGAGUUUCCUCCUGCAUUUUCAACAGCUCGCAGUCAAG,-0.0588
2,GGUCACGUCUCAAUCAACUCUACUCCCAGGGAAACCCCUGGCAAAUUCAACAGCUCGCAGUCAAG,-0.525
3,GGUCACGUCUCAAUCAACUCAUUUUCCAGGGAAACCCCUGGCUUUCUCAACAGCUCGCAGUCAAG,-0.172
4,GGUCACGUCUCAAUCAACUCAGUCUCAGGAGUUUUCUCCUGCAAUCUCAACAGCUCGCAGUCAAG,0.159
5,GGUCACGUCUCAAUCAACUCAAUCUCCAGGGAAACCCCUGGUUUUUUCAACAGCUCGCAGUCAAG,-0.0734
6,GGUCACGUCUCAAUCAACUCAUCUUCCAGGGAAAUCCCUGGUAUUCUCAACAGCUCGCAGUCAAG,0.195
7,GGUCACGUCUCAAUCAACUCAAUCUCCAGGGAAAUCCCUGGUAAACUCAACAGCUCGCAGUCAAG,0.00813
8,GGUCACGUCUCAAUCAACUCUUUUCCCAGGGAAAGCCCUGGCUAUUUCAACAGCUCGCAGUCAAG,-0.00148
9,GGUCACGUCUCAAUCAACUCAUCUCCAGGAGUUUUCUCCUGUAUAUUCAACAGCUCGCAGUCAAG,-0.114
10,GGUCACGUCUCAAUCAACUCUAUUCCCAGGGAAAGCCCUGGCAUACUCAACAGCUCGCAGUCAAG,0.0039
11,GGUCACGUCUCAAUCAACUCCCUCGAGGGGGGGAAAACCCCUUUACCCUCAUUCUCAACAGCUCGCAGUCAAG,0.288
12,GGUCACGUCUCAAUCAACUCUUCCCCAGGAGUUUACUCCUGCAAUUUCAACAGCUCGCAGUCAAG,0.233
13,GGUCACGUCUCAAUCAACUCGUCUUCAGGAGUUUACUCCUGCAUAUUCAACAGCUCGCAGUCAAG,0.148
14,GGUCACGUCUCAAUCAACUCUCCCGAGGGGGGGAAAACCCCUUUACCCUCAAUAUCAACAGCUCGCAGUCAAG,-0.143
15,GGUCACGUCUCAAUCAACUCUCUAGAGGGGGGGAAAACCCCUUUACCCUCAUCCUCAACAGCUCGCAGUCAAG,-0.36
16,GGUCACGUCUCAAUCAACUCAAUAGAGGGGGGGAAAACCCCUUUACCCUCGAUAUCAACAGCUCGCAGUCAAG,0.435
17,GGUCACGUCUCAAUCAACUCCCUCGAGGGGGGGAAAACCCCUUUACCCUCAAAUUCAACAGCUCGCAGUCAAG,-0.163
18,GGUCACGUCUCAAUCAACUCGUCUUCAGGAGUUUCCUCCUGCUUAUUCAACAGCUCGCAGUCAAG,-0.182
19,GGUCACGUCUCAAUCAACUCUUUUCCAGGAGUUUCCUCCUGUAUUUUCAACAGCUCGCAGUCAAG,-0.119
20,GGUCACGUCUCAAUCAACUCUAUUCCCAGGGAAAACCCUGGUUAAUUCAACAGCUCGCAGUCAAG,0.0158
21,GGUCACGUCUCAAUCAACUCUAUCUCCAGGGAAAUCCCUGGUAUUCUCAACAGCUCGCAGUCAAG,-0.0841
22,GGUCACGUCUCAAUCAACUCAAUCCCCAGGGAAACCCCUGGUUAACUCAACAGCUCGCAGUCAAG,-0.0913
23,GGUCACGUCUCAAUCAACUCAUGUCCAGGAGUUUUCUCCUGUAAUCUCAACAGCUCGCAGUCAAG,-0.188
24,GGUCACGUCUCAAUCAACUCAUUUCCAGGAGUUUGCUCCUGCAUAUUCAACAGCUCGCAGUCAAG,0.159

# — publication PMC5892938
